Test results reported in PMC4336329 (PLoS ONE, 2015).
Among all 310,000 compounds or so, about 14,000 (4.5%) showed an effect of 50% or more. Effects have a minus sign here. The list shows a part of the results.

Biological target: human ether-à-go-go-related gene (hERG) potassium channel (human, UniProt Q12809)
Experiment: primary screen, population patch clamp on CHO cells stably expressing hERG
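Also: peak tail current of the secondary pulse compared with the same well before compound.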

Sequence of human ether-à-go-go-related gene (hERG) potassium channel (Q12809 whole entry, looked up): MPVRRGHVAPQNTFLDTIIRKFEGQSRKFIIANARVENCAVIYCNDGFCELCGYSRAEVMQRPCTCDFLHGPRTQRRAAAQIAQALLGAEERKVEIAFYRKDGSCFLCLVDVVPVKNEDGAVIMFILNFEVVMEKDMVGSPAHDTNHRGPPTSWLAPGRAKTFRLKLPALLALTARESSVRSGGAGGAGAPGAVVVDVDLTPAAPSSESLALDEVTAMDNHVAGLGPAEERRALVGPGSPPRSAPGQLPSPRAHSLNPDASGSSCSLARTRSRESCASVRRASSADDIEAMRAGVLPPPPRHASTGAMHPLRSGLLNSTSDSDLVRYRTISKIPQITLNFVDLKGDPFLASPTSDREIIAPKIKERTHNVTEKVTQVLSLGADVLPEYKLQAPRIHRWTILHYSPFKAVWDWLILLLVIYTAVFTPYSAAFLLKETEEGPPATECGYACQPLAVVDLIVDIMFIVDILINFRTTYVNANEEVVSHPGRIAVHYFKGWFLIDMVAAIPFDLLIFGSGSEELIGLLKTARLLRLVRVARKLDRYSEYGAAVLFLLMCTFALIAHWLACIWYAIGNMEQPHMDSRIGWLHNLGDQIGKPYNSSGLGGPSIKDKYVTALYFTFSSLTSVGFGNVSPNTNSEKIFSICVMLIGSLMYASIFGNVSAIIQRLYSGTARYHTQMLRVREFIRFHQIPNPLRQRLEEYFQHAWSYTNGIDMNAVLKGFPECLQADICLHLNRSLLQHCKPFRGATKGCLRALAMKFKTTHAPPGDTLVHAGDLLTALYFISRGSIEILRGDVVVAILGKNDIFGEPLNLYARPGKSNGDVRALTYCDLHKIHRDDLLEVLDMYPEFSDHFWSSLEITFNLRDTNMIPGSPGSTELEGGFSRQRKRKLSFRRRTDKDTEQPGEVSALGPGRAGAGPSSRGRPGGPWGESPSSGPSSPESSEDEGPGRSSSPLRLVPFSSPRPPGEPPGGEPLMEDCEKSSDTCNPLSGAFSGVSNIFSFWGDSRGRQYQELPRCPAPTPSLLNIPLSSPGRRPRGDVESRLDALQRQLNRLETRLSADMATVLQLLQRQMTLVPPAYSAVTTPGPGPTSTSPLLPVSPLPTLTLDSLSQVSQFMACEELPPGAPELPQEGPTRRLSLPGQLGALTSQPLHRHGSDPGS

SMILES | hERG current change (%, negative = inhibition) at 10uM
CCc1ccc(NC(=O)Cc2cn(C)c3ccccc23)cc1 | 12.4%
CCN(CC(=O)Nc1ccc(NC(C)=O)cc1)C(=O)c1ccc2c(c1)S(=O)(=O)N=C1CCCCCN12 | 7.78%
Cc1c([N+](=O)[O-])c(C(=O)Nc2ccc3c(c2)OCCO3)nn1C | 12.2%
COc1cc2[nH]c(C(=O)N3CCc4ccccc43)cc2c(OC)c1OC | -3.68%
O=C(c1cccc(S(=O)(=O)NCc2ccccc2)c1)N1CCCCC1 | -9.43%
COc1ccc(CN2CC[C@H]3C=CC[C@@H](C(=O)Nc4ccc(Cl)c(C(F)(F)F)c4)[C@H]3C2=O)cc1OC | -29.6%
CN(C)S(=O)(=O)N1CCC(Oc2ccc(C(=O)NCc3cnn(C)c3)cc2)CC1 | 14.1%
CC1C=CCC2C(=O)N(c3ccc(Cl)cc3O)C(=O)C12 (centres unmarked) | -2.47%
CC(c1ccccc1)(c1ccccc1)c1ccncc1 | -0.938%
CCN(CC)CCCNC(=O)C1CCN(c2ncnc3c2sc2cccc(F)c23)CC1 | -50.2%
CCCCN1CNC(=S)N(c2ccc(C(=O)OCC)cc2)C1 | 2.62%
CCOCCCNC(=O)C(NC(=O)c1ccc(NC(C)=O)cc1)c1ccc(OC)cc1 (centres unmarked) | -2.69%
COc1cc(/C=N/n2c(C)n[nH]c2=S)ccc1OCc1ccc(F)cc1 | 6.9%
O=C(NCC(c1ccc(F)cc1)N1CCOCC1)c1c(F)cccc1F (centres unmarked) | 2.46%
CNC(=O)c1ccc(-c2sc3nc(N4CCOCC4)c4c(c3c2N)CC(C)(C)OC4)o1 | 0.721%
Nc1cc(N)cc(-c2nc3ccccc3o2)c1 | 5.89%
Cc1cc(/C=C(\C#N)C(=O)N2CCCCC2)cc(C)c1O | -9.07%
O=C1CC(=O)C(n2cncn2)C(c2ccc(Cl)cc2Cl)C1 (centres unmarked) | 7.83%
O=C(Cn1c(=O)c2c3c(sc2n(Cc2ccccc2)c1=O)CCCC3)NCCO | 10.9%
CC(=O)Nc1ccc(NC(=O)CSc2nnc(-c3cccs3)n2N)cc1 | 1.15%
CC1=C(C(=O)OC2CCC(C)CC2)C(c2ccc(O)c([N+](=O)[O-])c2)NC(=O)N1 (centres unmarked) | -0.635%
Cc1cc(OCC(=O)NCc2ccccn2)c2c(C)c(Cc3ccccc3)c(=O)oc2c1 | -11.2%
COCCCNC(=S)N/N=C/c1ccc2ccccc2c1 | 19.1%

SMILES | hERG current change (%, negative = inhibition) at 10uM
CCOc1ccc(C(=O)NCC(=O)OCC(=O)Nc2ccccc2OCC)cc1 | 0.502%
O=C(CSc1nnc(-c2cnccn2)n1Cc1ccco1)c1ccccc1 | -16.3%
COc1ccc(-c2nc(N)ncc2-c2csc(C)n2)c(O)c1 | 7.75%
CCOc1ccc(CNC(=O)C(C)n2ccc3cc(S(=O)(=O)N4CCCC4)ccc32)cc1 (centres unmarked) | -4.02%
c1ccc2oc(-c3ccc4nc[nH]c4c3)nc2c1 | 8.28%
CC(C)(C)C(=O)Nc1ccc(C(=O)NNC(=O)Cc2ccccc2)cc1 | 12.4%
Cc1c2c(nc3c(C(=O)NC4CCCCC4C)cnn13)CCCC2 (centres unmarked) | -10.7%
CCc1ccc(NC(=O)C(=O)NCC2CCCN2S(=O)(=O)c2ccccc2)cc1 (centres unmarked) | -26.3%
Cn1c2ccccc2c2nnc(SCC(N)=O)nc21 | -7.5%
CC(=O)C1=C(C)NC(=O)NC1c1ccc2c(c1)OCO2 (centres unmarked) | 12.9%
CC1=NNC(=O)/C1=C\c1cn(-c2ccccc2)nc1-c1ccccc1 | 23.1%
COc1ccc2[nH]c(=O)c(C(c3nnnn3C3CCCC3)N(C)C3CCCCC3)cc2c1 (centres unmarked) | -17.3%
CCn1c(O)c(C(=O)CC2NCCc3ccccc32)c(=O)n(CC)c1=S (centres unmarked) | 4.97%
O=C(/C=C/c1ccco1)Oc1cc(Br)cc(/C=N/NC(=O)c2ccccc2O)c1 | -0.563%
Cc1ccc(C)c(OCCC(=O)OCC(=O)NC2CC2)c1 | 5.28%
CCOC(=O)C1(CCc2ccccc2)CCN(Cc2ccc(NC(C)=O)cc2)CC1 | -76.6%
Cc1ccc2c(c1)NCCO2 | 4.46%
CCOC(=O)c1ccc(C(=O)OCC)nc1 | 21.1%
CC(=O)c1cccc(-n2nnnc2SCC(=O)Nc2ccccc2N2CCCCC2)c1 | 7.52%
Oc1c(Br)cc(/C=N/Nc2ccc(Cl)nn2)cc1Br | -37.6%
CCOc1ccc2oc(-c3ccccc3)c(C(=O)N(C)C)c2c1 | 10.7%
CC12CN3CC(C)(CN(C1)C31CCOCC1)C2=O | 11.4%
COc1cc(NC(=O)c2c(F)c(F)c(OC)c(F)c2F)ccc1NC(=O)c1cccs1 | 11.2%

SMILES | hERG current change (%, negative = inhibition) at 10uM
COc1cccc(C(=O)N/N=c2\oc3c(OC)cccc3cc2C(=O)NCc2ccccc2)c1 | -8.28%
COc1ccc(/C=C2\SC(=S)N(CCC(=O)Nc3ccccn3)C2=O)cc1OC | 26.2%
COc1ccccc1N1CCN(CCC(=O)Nc2ccc3c(c2)OCO3)CC1 | -26.7%
Cc1nc(N2CCN(c3ccccc3)CC2)[nH]c(=O)c1Cc1ccccc1 | -6.78%
Cc1ccc(C(=O)CCNc2ccccc2)o1 | -1.25%
O=C1CCCN1CCC(=O)N1CCCC(Nc2ccc(F)cc2)C1 (centres unmarked) | -11.4%
O=c1[nH]c2cc(Cl)cc(Cl)c2[nH]c1=O | 9.1%
Cc1ccc(/C(O)=C2\C(=O)C(=O)N(C)C2c2ccc(Br)cc2)cc1 (centres unmarked) | 13.3%
CCN(CC)c1ccc2c(c1)OC(N)=C(C#N)C2c1cccnc1 (centres unmarked) | -10.1%
CC(=O)N1CCN(Cc2nc3cc(NC(=O)c4cccc(Br)c4)ccc3n2C)CC1 | -70%
COc1ccc(CN2CCN(S(=O)(=O)c3ccccc3)CC2)cc1Br.O=C(O)C(=O)O | -13.2%
O=C1OCc2cc(NC(=O)C3COc4ccccc4O3)ccc21 (centres unmarked) | -6.15%
COc1ccccc1C(=O)NNC(=O)c1ccccc1[N+](=O)[O-] | 5.7%
COc1ccc(C2NC(=O)CCC2[N+](=O)[O-])cc1OC (centres unmarked) | 10.1%
CC12CCC(C(=O)Nc3ccccc3)(C(Br)C1=O)C2(C)C (centres unmarked) | -13.8%
COc1ccccc1NC(=O)COc1ccc(C(=O)NCc2ccccc2)cc1OC | 15.8%
CCNC(=O)CC1C(=O)N(c2ccccc2)C(=O)N1CCC(C)C (centres unmarked) | 5.26%
CC1(C)Cc2ccccc2C(/C(C#N)=N/O)=N1 | 5.63%
S=c1nn[nH]n1C12CC3CC(CC(C3)C1)C2 | 15.5%
CC1(C)CC(NC(=O)C(=O)NCCc2ccc(Cl)cc2)CC(C)(C)N1 | -13.9%
Cc1cc(C)cc(OCCn2ccnc2)c1 | 12.1%
COc1cc(/C=C2\C(=N)N3N=C(S(C)(=O)=O)SC3=NC2=O)cc(OC)c1OCCOc1cccc(C)c1 | 18.7%
CC(C)=C1SC(N2CCN(c3ccc(Cl)cc3)CC2)=NC1=O | -10.7%

SMILES | hERG current change (%, negative = inhibition) at 10uM
C/C(N)=C(/C#N)C(=O)CSc1nc2ccccc2n1CC(C)C | 9.78%
COc1ccc(C(=O)Nc2nnc(SCC(=O)NC3CCCC3)s2)c(OC)c1 | 13.3%
CCOc1nc(Nc2ccc(OC)cc2)nc(N2CCOCC2)n1 | -4.52%
Cc1ccc(S(=O)(=O)N2CCC(C(=O)NNC(=O)C3CC3)CC2)cc1Cl | 10.9%
CS(=O)(=O)N1CCN(c2nc(-c3ccc(F)cc3)cs2)CC1 | -77.2%
Cl.Oc1ccc(C2=CSC3=NCCN23)cc1O | -1.2%
Oc1ccccc1CNc1cnc2ccccc2c1 | 0.673%
COc1ccc(C(=O)C2CCCN(Cc3cn[nH]c3-c3ccccc3)C2)cc1OC (centres unmarked) | -74%
CC(C)COP(=O)(OCC(C)C)C(Nc1ccccc1)c1ccc(F)cc1 (centres unmarked) | 4.06%
O=C(CSc1nnc(SCc2ccccc2Cl)s1)N/N=C/c1ccc(C(=O)O)cc1 | 2.71%
CCOC(=O)N1CCC(NC(=O)C2CCN(c3nc(-c4ccc(OC)cc4)no3)CC2)CC1 | 6.58%
CCOC(=O)C1(CCc2ccccc2)CCN(Cc2ccc(C(=O)OC)cc2)CC1 | -91.8%
COc1cccc(CNC(=S)NC2CCCC2)c1 | 3.42%
Cl.O=C(NCCN1CCCC1)c1ccc(Br)cc1 | -11.9%
CC1=CC(c2ccc(Cl)cc2)n2nc(NC(=O)CCCC(=O)O)nc2N1 (centres unmarked) | 21%
O=C(O)CCCC(=O)Nc1ccc(C(=O)NCc2cccnc2)cc1 | 9.35%
Cc1ccc(N2C(=O)c3cccc4c(C(=O)O)ccc(c34)C2=O)cc1 | 8.57%
Cc1cc(C)cc(OCC(=O)OCC(=O)c2cc(C)n(C3CC3)c2C)c1 | -4.06%
Nc1ccc(C(=O)Nc2ccccc2C(=O)O)cc1 | 10.2%
Cc1cccc(NC2=NC(C)(C)N=C(N)N2)c1 | 9.04%
